Experimental data from the supplement of paper PMC10126150.
Sequences with one replicate were seen in a single cluster, so their values are uncertain.

System: ATP
Assay: switch fluorescence ratio, 500 uM ATP over buffer (Cy3 cluster intensity, sum of 5 cycles each) (fold (ratio)); higher = stronger signal-on switching upon ATP binding; sequences stand for … in TCGTCGGCAGCGTCAGATGTGTATAAGAGACAGTTTTTTTTTTTTTTTTTTTTTTTTT…TC
Settings: aptamer strand: ATP DNA aptamer (quencher-CACCTGGGGGAGTATTGCGGAGGAAGG + anchor), 100 nM annealed; ATP concentration: 500 uM; one replicate
In short: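 Per cluster, summed Cy3 intensity from the target cycles was divided by that from the buffer cycles to give the fluorescence ratio, then averaged per switch-domain sequence. Clusters outside 100-1000 RFU were excluded. The Cy3-labelled switching-strand clusters, on a modified Illumina MiSeq flow-cell, were annealed to 100 nM quencher-labelled ATP aptamer and imaged in selection buffer, then after 15 min with 500 uM ATP at 22 °C, for five cycles with NaOH stripping and re-annealing between them.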
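Note: ATP exposure 15 min at 22 °C before imaging.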

Row | Sequence | switch fluorescence ratio
1 | ATGCATTCCA | 1.04
2 | CTTTTTTTGA | 0.985
3 | CCTCGAGTGG | 1.04
4 | AGGTATCGAC | 0.965
5 | TTGCAGGATG | 0.949
6 | ACTCCCCATC | 2.57
7 | GCCGAAAAA | 1.01
8 | CAGAGGATTA | 1
9 | TTCGACGGTG | 1.02
10 | AGGTTGGTAT | 1
11 | ATTGTTCTCG | 1.02
12 | TAGAGAAT | 1.05
13 | GTAGTGGCGC | 0.949
14 | GAACTGTCAG | 0.989
15 | TAGAAACTAG | 1.03
16 | AGTCATAAAT | 0.964
17 | GGCCTACACC | 1.05
18 | ATGGTACGCT | 1.03
19 | TCTCATTATA | 0.986
20 | GGCACGCCAG | 0.961
21 | AACACTTGGC | 1.09
22 | GCAAAACAGG | 1.03

Row | Sequence | switch fluorescence ratio
23 | GGCTTCGGAG | 0.987
24 | GTCAGTAGCC | 0.98
25 | CCTGGTCCTC | 1.04
26 | AATCAAGC | 1.04
27 | GGGAAACCCC | 1.25
28 | GGGTGGGGA | 1.05
29 | CAACGCGTA | 1.08
30 | TTGTTTACAG | 0.921
31 | AAATTGGCTG | 1.03
32 | AAATCTTGGC | 1.03
33 | CGTTGCCGTA | 0.992
34 | CGTCAGCACC | 2.36
35 | GCACCGGTGT | 1.02
36 | AGGACGGGGC | 1.02
37 | GCATCAGAGG | 1.01
38 | TGCCTTGTCA | 0.998
39 | AAACGCACT | 1.83
40 | ACTATTAGTG | 0.984
41 | AAGCCCGGGT | 1.1
42 | GCTGGTTTGA | 0.976
43 | ACTATAATCT | 1.07
44 | TTCTGAGTAG | 1.01

Row | Sequence | switch fluorescence ratio
45 | CAGTAAGCCT | 1.02
46 | GCACGAGGGA | 1.11
47 | TTTCCATAAT | 1.01
48 | TCTTGCATCC | 1.08
49 | GGGTTTAGTT | 1.02
50 | GCATGGGCTC | 1.05
51 | TGGACACCAA | 1.03
52 | GTCAAGTTGT | 0.997
53 | CATGTATTTA | 0.981
54 | CTGTCAGGTA | 0.982
55 | ATCATAATAT | 0.964
56 | ATTCCGATTC | 1.1
57 | GTGTGTATGC | 0.98
58 | CCACATTCGT | 1.02
59 | ATGTCCCCAG | 0.977
60 | TCGACTTGAT | 0.987
61 | CGGCACCTTC | 1.22
62 | CCTCAAGGCA | 1.84
63 | ATCAGCGTAT | 1.01
64 | TTAGGTTAA | 1.04
65 | CATTGACGGC | 1.05
66 | GGACGTCGGC | 0.98

Row | Sequence | switch fluorescence ratio
67 | CGAGCATCTC | 0.988
68 | GATGACCAA | 1
69 | GGGGCAAATG | 1
70 | CGTGATCCTC | 1.14
71 | GAGTGTAATG | 1
72 | AAATACATGC | 1.03
73 | AAAGTAGAAC | 0.994
74 | ACTTCGCTGA | 2.63
75 | GGGCCGTGTT | 0.973
76 | GCCCGGTAGA | 0.991
77 | GATTACCGTT | 0.998
78 | GTGTTTAGAA | 0.99
79 | CTTTTCGGCG | 0.99
80 | GCTCAGTCGG | 0.968
81 | TTCCTTGACG | 0.975
82 | TTGGCGTGTT | 1
83 | CAGAGTGTAT | 1.02
84 | TGGGAGCACT | 1.04
85 | TTAAGTAGCA | 1.04
